In PubChem BioAssay AID488969 (Vanderbilt High Throughput Screening Facility, 2010) one finds z-score data, which are given here for 71 compounds.

The full ranking holds about 110,000 compounds; the median of “z-score” is about -0.1, and the highest 2% start at about 2. Some of the results follow. Calls of active or inactive are those of the source.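 The calls were made as follows: active = z-score in the third read window above 3 or below -3; inactive = the rest.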

The assay deals with Metabotropic glutamate receptor 8 (Rattus norvegicus) (UniProt P70579). The assay is described as follows: mGluR8 Gi/Go-coupled signaling modulation – cell-based, rat, thallium flux, HTS, primary screen (AID 488969). Conditions: HEK293 rat mGluR8, GIRK (G protein-gated inwardly rectifying potassium channel) thallium flux, FluoZin2; at 10 µM; stronger effect = higher value; submaximal glutamate (EC20) added with thallium.
Sequence of UniProt P70579 (P70579 whole entry, looked up): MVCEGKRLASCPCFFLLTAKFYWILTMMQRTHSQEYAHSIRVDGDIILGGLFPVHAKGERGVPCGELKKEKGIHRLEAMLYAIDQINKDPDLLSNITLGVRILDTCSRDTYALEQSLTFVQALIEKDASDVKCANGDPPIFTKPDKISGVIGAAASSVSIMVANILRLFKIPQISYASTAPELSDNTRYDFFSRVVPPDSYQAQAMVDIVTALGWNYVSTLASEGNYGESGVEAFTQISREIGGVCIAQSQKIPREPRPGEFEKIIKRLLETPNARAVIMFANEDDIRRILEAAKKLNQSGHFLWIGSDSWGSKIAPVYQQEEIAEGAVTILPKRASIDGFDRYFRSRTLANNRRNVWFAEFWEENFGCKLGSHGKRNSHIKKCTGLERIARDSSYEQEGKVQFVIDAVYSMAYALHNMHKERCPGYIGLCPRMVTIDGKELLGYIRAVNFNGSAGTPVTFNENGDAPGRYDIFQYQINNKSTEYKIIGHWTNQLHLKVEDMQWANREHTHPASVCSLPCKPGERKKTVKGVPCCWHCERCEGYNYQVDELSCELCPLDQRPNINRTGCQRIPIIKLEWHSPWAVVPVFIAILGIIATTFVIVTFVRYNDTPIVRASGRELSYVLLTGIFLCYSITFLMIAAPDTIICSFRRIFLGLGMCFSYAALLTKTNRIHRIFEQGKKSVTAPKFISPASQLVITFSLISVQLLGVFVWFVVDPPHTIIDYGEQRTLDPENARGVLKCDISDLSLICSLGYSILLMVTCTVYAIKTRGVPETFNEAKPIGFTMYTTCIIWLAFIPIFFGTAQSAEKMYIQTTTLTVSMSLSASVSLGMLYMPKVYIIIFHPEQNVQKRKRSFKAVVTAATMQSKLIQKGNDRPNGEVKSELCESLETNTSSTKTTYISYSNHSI
On to `CC1(C)Cc2c(sc3nc(-c4ccccc4)oc(=O)c23)CO1`, for which the z-score was -0.0277.

Compound `CCC(=O)c1ccc(OCC(O)CN(CCc2ccccc2)Cc2ccccc2)cc1` (stereo unspecified) came in with a z-score of -0.279.

For `CC(C)C(=O)N/N=C/c1ccc(OCc2ccccc2)cc1`, the z-score was -0.402.

Compound `Cc1ccc(N/N=C/c2cccnc2)cc1` yielded a z-score of -0.225.

On to `CC(Oc1cccc(Cl)c1)C(=O)Nc1ccc([N+](=O)[O-])cn1` (stereo unspecified), for which the z-score is -0.576.

The compound `Cc1ccc(Oc2cc(-n3nc(C)cc3C)ncn2)cc1` showed a z-score of -0.129.

For `Clc1ccc(CSc2nnc(Cn3cnc4ccccc43)o2)cc1`, the z-score is -0.164.

For `CCNC(=O)CC1C(=O)N(c2cccc(OC)c2)C(=O)N1CCOC` (stereo unspecified), the z-score is -0.0255.

As for `Cc1nnc(SCC(=O)NNC(=O)c2ccccc2)n1-c1ccccc1`, the z-score came out at 0.58.

`O=C1NCCCC2c3cc(O)c4ccccc4c3OC12N1CCCCC1` (stereo unspecified) displayed a z-score of 0.88.

The compound `Cc1nc2c3cc(Cl)ccc3n(CCN3CCCCC3)c2s1` displayed a z-score of -0.2.

Turning to `COc1ccc(Nc2oc(COc3cccc(C)c3)nc2C#N)cc1`, the z-score is -0.231.

Consider `Nc1nc(-c2ccco2)nn1C(=O)c1ccc(Cl)cc1`, for which the z-score turned out to be 0.891.

Compound `Cc1ccc(NC(=O)CN2CCC(C(=O)c3ccc(F)cc3)CC2)cc1` showed a z-score of -0.231.

In turn, `CC(=O)Nc1cccc(C(=O)/C=C/c2ccc(Br)cc2)c1` returned a z-score of -0.447.

`O=[N+]([O-])c1ccc(Cl)c(/C=N/NC(=S)Nc2ccccc2)c1` displayed a z-score of 1.33.

In the case of `CC1CCc2c(sc3ncnc(SCC(=O)c4ccccc4)c23)C1` (stereo unspecified), the z-score came out at 0.381.

In the case of `NC(=O)c1ccc(Cc2ncc(C(F)(F)F)cc2Cl)s1`, the z-score was active: 4.24.

For `COc1ccc(N(C(=O)c2ccccc2OC)C2C=CS(=O)(=O)C2)c(OC)c1` (stereo unspecified), the z-score was -0.153.

`CC(C)n1c(NCc2ccc(N(C)C)cc2)nc2ccccc21` yielded a z-score of -0.853.

Compound `O=C(CSc1ncccn1)NC(=O)NCc1ccccc1` gave a z-score of 0.0641.

With `Cc1cc(C)n(S(=O)(=O)c2cccc(Cl)c2Cl)n1`, the z-score is 0.0791.

Turning to `CC1(N2CCCCC2)C(=O)c2ccccc2C1=O`, the z-score stood at 0.0349.

`COc1cc(C(=O)N2CCC(n3c(C)nc4cc(F)ccc43)CC2)cc(OC)c1OC` returned a z-score of 0.139.

For `CC1=C(c2ccccc2)[N+](=O)C2(CCCC2)N1[O-]`, the z-score came to 0.067.

Compound `CCOC(=O)c1ccc(NS(=O)(=O)c2cc(-c3nnnn3CC)ccc2OC)cc1` came in with a z-score of 0.274.

Compound `O=C(CCN1C(=O)c2ccccc2C1=O)C1=NN[C@@H]2C(=O)N(c3cccc(Cl)c3)C(=O)[C@H]12` came in with a z-score of -0.513.

`CCOc1cc(/C=N/NC(=O)C(C)Sc2ccccn2)ccc1O` (stereo unspecified) yielded a z-score of -0.298.

With `CCN(CC)c1nc(-c2ccc(Cl)cc2)cc(C(F)(F)F)c1C#N`, the z-score is -0.142.

`CN1CCN(Cc2c(O)ccc3occ(C(=O)c4ccccc4)c23)CC1` gave a z-score of -0.931.

On to `COC(=O)c1ccc(N2C(=O)CC(N(C)CCc3ccc(OC)c(OC)c3)C2=O)cc1` (stereo unspecified), for which the z-score stood at 0.475.

Turning to `COc1ccccc1Nc1nc(N)nc(CSc2ncccn2)n1`, the z-score is -0.305.

Take `CCc1ccc(CNC(=O)c2cc3c(C)nc4ccccc4c3o2)cc1`: the z-score was -0.656.

`O=C1NCN(c2ccccc2)C12CCN(c1nnnn1-c1ccccc1)CC2` registered a z-score of -0.747.

For `CCn1c(SCc2ccc(OC)cc2)nnc1-c1ccncc1`, the z-score turned out to be 0.857.

Take `CNc1ccccc1-n1ccc(-c2ccccc2)n1`: the z-score amounted to 1.11.

Compound `COc1ccccc1NC(=O)C(=N\O)/C(C)=N/O` showed a z-score of -0.28.

`Cc1ccc(S(=O)(=O)NC(=O)Nc2ccc(F)cc2)cc1` gave a z-score of 0.0553.

In turn, `COC(=O)NNC(=O)c1cccc(C)c1` returned a z-score of -0.067.

`CSc1nc(-c2ccco2)nn1C(=O)c1ccc(Cl)cc1` registered a z-score of -0.367.

The compound `COCc1c(C#N)c(NCCc2ccc(F)cc2)nc(C)c1[N+](=O)[O-]` showed a z-score of -0.47.

Consider `OC1CCCCC1Sc1nc2ccccc2s1` (stereo unspecified), for which the z-score was -0.475.

Consider `COc1ccc(C2Nc3ccccc3C(=O)N2c2ccc(C)cc2)cc1Cn1nc(C)c([N+](=O)[O-])c1C` (stereo unspecified), for which the z-score is -0.318.

In the case of `CCc1cc(=O)oc2c(C)c(OS(C)(=O)=O)ccc12`, the z-score was determined as 0.233.

In turn, `COc1cc(C(=O)OC(C)C(=O)Nc2ccc3c(c2)OCO3)ccc1OCc1c(C)noc1C` (stereo unspecified) registered a z-score of 0.154.

The compound `COc1ccc(/C=N/n2cnnc2SCc2ccccc2)cc1` had a z-score of -0.759.

On to `Cn1c(=O)c2c(nc(OCc3cccnc3)n2Cc2ccccc2)n(C)c1=O`, for which the z-score was -0.843.

`COc1ccccc1CNC(=O)c1ccc(CS(=O)(=O)c2ccccc2OC)o1` yielded a z-score of -0.585.

Compound `O=C(c1ccccc1Br)N1CCN(c2ccccc2)CC1` displayed a z-score of -1.28.

Turning to `O=C(O)C1C2C=CC(C2)C1C(=O)OCc1ccccc1` (stereo unspecified), the z-score was -0.273.

`COc1ccc(/C=C2/SC(=O)N(CCC(=O)Nc3ccccc3)C2=O)cc1OC` gave a z-score of 0.629.

`Cc1ccc(-n2nnnc2-c2cnc3cc4c(cc3c2C)OCO4)cc1`: the z-score is -0.169.

Compound `Cc1ccc(C)c(S(=O)(=O)Nc2nc(C)c(C(=O)Nc3ccccc3)s2)c1` returned a z-score of -0.565.

As to `CC(C(=O)Nc1ccccc1-c1ccccc1)N1CCN(S(=O)(=O)c2ccccc2)CC1` (stereo unspecified), the z-score was -0.2.

Consider `COc1ccccc1NC(=O)c1ccc(NC(=O)COC(=O)CCC2CCCC2)cc1`, for which the z-score was -0.644.

`COc1cc(C(c2c(C)[nH][nH]c2=O)c2c(C)[nH][nH]c2=O)ccc1OS(=O)(=O)c1ccc(C)cc1`: the z-score was 0.123.

With `CCOC(=O)C1=C(Nc2ccc(Br)cc2)CC(C)(O)C(C(=O)OCC)C1c1ccccc1` (stereo unspecified), the z-score is -0.148.

As to `Cc1occc1C(=O)Nc1cc(C(C)(C)C)on1`, the z-score was 0.17.

In turn, `COC(=O)c1cc(C#N)c(Oc2ccccc2OC)nc1C` showed a z-score of -0.0789.

In turn, `NC(=O)C1CCN(C2CC(=O)N(Cc3cccs3)C2=O)CC1` (stereo unspecified) registered a z-score of -0.0147.

Regarding `COc1cc(/C=C/C(=O)NC(C)C)ccc1OCc1ccccc1`, the z-score was -0.409.

`COc1ccc(NC(=S)NC(NC(C)=O)C(Cl)(Cl)Cl)c([N+](=O)[O-])c1` (stereo unspecified) came in with a z-score of -0.504.

`CSC(=NNC(=O)c1ccc(O)cc1)SC` showed a z-score of -0.329.

For the compound `COc1ccc(NC(=O)CCNC(C)=O)cc1NS(=O)(=O)c1ccc(F)cc1`, the z-score was -0.467.

Take `O=C(Nc1ccccc1)N(Cc1ccc2c(c1)OCO2)Cc1nc2ccccc2c(=O)[nH]1`: the z-score is -0.179.

In the case of `COc1ccc(OC)c(S(=O)(=O)N2Cc3ccccc3CC2C(=O)Nc2nccs2)c1` (stereo unspecified), the z-score worked out at 0.00786.

In turn, `Cc1ccc(CN/C=C/C(=O)c2ccc(Br)cc2)cc1` yielded a z-score of -0.291.

Turning to `CCN(CC)S(=O)(=O)c1cc(NC(=O)COc2ccc(C#N)cc2OC)ccc1C`, the z-score is -0.129.

The compound `O=C(NC1CCCCC1)N1CCSC1=Nc1ccccc1` showed a z-score of -0.214.

`COCCOC(=O)C1=C(C)NC2=C(C(=O)CCC2)C1c1ccc(N(C)C)cc1` (stereo unspecified): the z-score was found to be 0.0399.

For `O=S(=O)(NCc1ccccc1)c1ccc(S(=O)(=O)N(Cc2cccs2)CC2CCCO2)cc1` (stereo unspecified), the z-score turned out to be 0.312.
